PubChem BioAssay AID540317 (National Center for Advancing Translational Sciences (NCATS), 2011)
About 2,200 (0.56%) of roughly 390,000 compounds were called active. The shares of active, inactive and inconclusive entries below differ from those in the screen. Calls come from the whole dose curve; as a rule, active = well fitted inhibition curve with a large enough effect; inconclusive = small, poorly fitted or top-dose-only effect; inactive = no such curve, though single readings can be large or run the other way. A potency beside an inconclusive call is a rough fit, not a confirmed value.

These molecules were tested against Chromobox protein homolog 1 (Homo sapiens) (UniProt P83916) (assay: HTS for Inhibitors of HP1-beta Chromodomain Interactions with Methylated Histone Tails). Conditions: AlphaScreen HP1-beta / biotin-H3K9me3 peptide binding; series mostly up to 114 µM; activity change, negative = inhibition: at the top concentration.
Chain of UniProt P83916 (P83916 whole entry, looked up): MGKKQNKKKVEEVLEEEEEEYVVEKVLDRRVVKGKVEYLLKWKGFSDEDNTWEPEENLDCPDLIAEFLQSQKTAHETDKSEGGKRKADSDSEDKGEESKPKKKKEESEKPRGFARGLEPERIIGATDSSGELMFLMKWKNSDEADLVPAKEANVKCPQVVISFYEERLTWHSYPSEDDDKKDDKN
Procedure, shortened: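 AlphaScreen: HP1-beta (50 nM) preformed 30 min with biotin-H3(1-18)K9me3 peptide (50 nM) in PBS pH 7.4, 0.01% Tween-20. Compound added for 30 min at RT, then streptavidin donor/nickel chelate acceptor beads (10 ug/mL) for 30 min.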
Note: nearly all actives have a fitted effect of over 70% in size.
Potency is the fitted concentration of half-maximal effect; tags give direction and shape of the fitted curve.

| SMILES | Potency | activity change, negative = inhibition |
| --- | --- | --- |
| COc1ccc(C(=O)N2CCN(CCCc3ccccc3)CC2)cc1OC | inconclusive: 56.2 µM [inhibitor, partial curve, poor fit] |  |
| CCCOc1ccc(NC(=O)CC2C(=O)N(c3cccc(OC)c3)C(=O)N2CCc2ccncc2)cc1 (centres undefined) |  | inactive: 25.2% |
| Cc1ccc(NC(=O)CN(C)CC(=O)Nc2ccc(N3CCOCC3)cc2)cc1F | inconclusive: 14.1 µM [inhibitor, full curve, poor fit] |  |
| Cc1ccc2c(CN3C(=O)NC4(CCCCC4)C3=O)cc(=O)oc2c1C |  | inactive: 4.42% |
| CCN(CC)c1ccc(NC(=O)COCc2cc(-c3ccc4c(c3)OCO4)on2)c(C)c1 | inconclusive: 28.2 µM [inhibitor, full curve] |  |
| Nc1ccc(N=Nc2ccccc2Cl)c(N)n1 | inconclusive: 39.8 µM [inhibitor, partial curve] |  |
| CC(N=Cc1cccc(O)c1O)c1ccccc1 (centres undefined) | inconclusive: 15.8 µM [inhibitor, full curve, poor fit] |  |
| COc1ccc(-c2csc(-c3cccnc3)n2)cc1C |  | inactive: 74.4% |
| CCN1CCN(CC(=O)Nc2c(OC)cccc2OC)CC1 | active: 44.7 µM |  |
| Cn1c(SCc2ccccc2)nnc1C1CCCNC1 (centres undefined) |  | inactive: 13.2% |
| Cc1cc(C)cc(OCCN2CCOCC2)c1 | inconclusive: 15.8 µM [inhibitor, full curve, poor fit] |  |
| COc1cccc(NC(=O)c2cnc(SC)nc2C)c1 |  | inactive: 49.2% |
| O=C(Cc1cccs1)Nc1nnc(Cc2ccccc2)s1 | inconclusive: 28.2 µM [inhibitor, full curve, poor fit] |  |
| Cc1ccc(-n2c(O)cnc2Nc2nc(C)cc(C)n2)cc1 |  | inactive: 8.79% |
| COc1ccc(NC(=O)NNC(=O)CCc2ccc(O)c(O)c2)cc1OC | inconclusive: 79.4 µM [inhibitor, single point] |  |
| Cc1cc(NCc2ccncc2)ccc1Br | inconclusive: 20 µM [inhibitor, partial curve, poor fit] |  |
| COc1cc(CN2CCCCCC2)cc(OC)c1OC | inconclusive: 79.4 µM [inhibitor, partial curve] |  |
| O=C(Nc1nc(-c2ccc(Oc3ccccc3)cc2)cs1)C1=COCCO1 |  | inactive: 4.33% |
| OC(COC(c1ccc(F)cc1)c1ccc(F)cc1)CN1CCc2ccccc2C1 (centres undefined) | inconclusive: 28.2 µM [inhibitor, partial curve, poor fit] |  |
| COc1cc(/C=C2/C(=O)NN(c3cccc(Cl)c3)C2=O)cc(OC)c1O | inconclusive: 31.6 µM [inhibitor, partial curve, poor fit] |  |
| COc1cccc(-c2cnc(NCc3ccccc3Cl)n2C)c1 | inconclusive: 14.1 µM [inhibitor, full curve, poor fit] |  |
| O=C(NCc1ccco1)c1cccc2c1C(=O)c1ccc(/C=C/c3ccccc3)cc1S2(=O)=O | inconclusive: 44.7 µM [inhibitor, partial curve] |  |
| Cc1ccc(S(=O)(=O)Nc2cc3c(cc2Cl)n(C)c(=O)c(=O)n3C)cc1 |  | inactive: 24.5% |

| SMILES | Potency | activity change, negative = inhibition |
| --- | --- | --- |
| Cc1ccc(C)c(N2CCN(C(=O)c3cc4c(=O)n(Cc5cccs5)ccc4nc3C)CC2)c1 |  | inactive: 2.56% |
| CCN(CC)c1ccc(CNc2nc3ccccc3n2CC)cc1 | inconclusive: 35.5 µM [inhibitor, partial curve] |  |
| COc1cccc(/C=C2\SC(=S)N(C(C(=O)O)c3ccccc3)C2=O)c1OC (centres undefined) | inconclusive: 44.7 µM [inhibitor, partial curve, poor fit] |  |
| COc1ccccc1N1CCN(CCCCOc2c(OC)cccc2OC)CC1 | inconclusive: 31.6 µM [inhibitor, partial curve] |  |
| CCCCCC[N+](C)(C)CCSSCC[N+](C)(C)CCCCCC | inconclusive: 3.55 µM [inhibitor, full curve, poor fit] |  |
| O=[N+]([O-])c1cccc(C(=S)N2CCN(c3ccccc3F)CC2)c1 | inconclusive: 17.8 µM [inhibitor, full curve] |  |
| CC(C)c1ccc(CNC(=O)C(=O)NCC2CCCO2)cc1 (centres undefined) |  | inactive: 35.4% |
| COC(=O)CCN1CCN(S(=O)(=O)c2ccccc2Br)CC1 | inconclusive: 22.4 µM [inhibitor, single point] |  |
| O=S(=O)(c1ccccc1)c1nc(-c2ccco2)oc1NCc1ccco1 | inconclusive: 39.8 µM [inhibitor, single point] |  |
| COc1ccc(OC)c(N/C(C)=C/C(=O)c2ccccc2)c1 | inconclusive: 25.1 µM [inhibitor, single point] |  |
| CC1CCCN(C(=O)C2CCN(CC(C)c3ccccc3)CC2)C1 (centres undefined) | inconclusive: 56.2 µM [inhibitor, partial curve, poor fit] |  |
| Nc1ccc(S(=O)(=O)Nc2nccc(/C=C/c3ccc(Br)s3)n2)cc1 | inconclusive: 7.08 µM [inhibitor, full curve, poor fit] |  |
| CCOc1ccc(CNn2cnnc2)cc1 | inconclusive: 39.8 µM [inhibitor, single point] |  |
| CC1Cc2ccccc2N1C(=O)CN1CCN(Cc2ccccc2)CC1 (centres undefined) | inconclusive: 15.8 µM [inhibitor, full curve] |  |
| O=C1NCCO1 |  | inactive: -4.39% |
| CCCNCC(=O)Nc1cccc(S(=O)(=O)NC2=NCCCCC2)c1 | inconclusive: 50.1 µM [inhibitor, partial curve, poor fit] |  |
| Cc1ccc(-c2ccc(CCC(=O)O)n2-c2ccc(C(C)C)cc2)cc1 | inconclusive: 50.1 µM [inhibitor, partial curve] |  |
| CCC(C)Nc1nc(-c2c[nH]c3ccccc23)cs1 (centres undefined) | inconclusive: 14.1 µM [inhibitor, partial curve] |  |
| CC(C)c1ccc(/C=C2\SC(=S)N(CC(=O)NCCCN3CCOCC3)C2=O)cc1 | inconclusive: 50.1 µM [inhibitor, partial curve] |  |
| Cc1c(F)cccc1NC(=O)CCCCCC1NC(=O)NC1C (centres undefined) | inconclusive: 1.12 µM [inhibitor, full curve, poor fit] |  |
| CCOc1ccc(CNc2ccc(N3CCN(Cc4ccccc4)CC3)cc2)cc1 | inconclusive: 7.94 µM [inhibitor, full curve] |  |
| Cc1nc(N2CCOCC2)nc(N2CCN(c3ccccc3)CC2)c1[N+](=O)[O-] | inconclusive: 14.1 µM [inhibitor, full curve, poor fit] |  |
| O=C(CN1CCN(S(=O)(=O)c2ccccc2)CC1)Nc1cccc(C(F)(F)F)c1 |  | inactive: -10.4% |

| SMILES | Potency | activity change, negative = inhibition |
| --- | --- | --- |
| Cc1ccc(-c2nc3c(C)cccn3c2Nc2ccccc2C)s1 | inconclusive: 22.4 µM [inhibitor, full curve] |  |
| O=c1oc2c(-c3cccc(F)c3)cc(O)cc2s1 | inconclusive: 79.4 µM [inhibitor, partial curve] |  |
| Cc1nc(Nc2ccc(S(N)(=O)=O)cc2)sc1-c1ccccc1 |  | inactive: -18.7% |
| O=C1c2ccccc2C(=O)N1CCc1ccccc1 | inconclusive: 39.8 µM [inhibitor, single point] |  |
| COc1ccc(-n2nnnc2Sc2ccc(S(=O)(=O)N3CCOCC3)cn2)cc1 | inconclusive: 50.1 µM [inhibitor, partial curve] |  |
| N=C1C=CC=C2C1=NC1(CCCCC1)N2O | inconclusive: 35.5 µM [inhibitor, partial curve, poor fit] |  |
| S=c1[nH]nc(-c2ccc(Cl)cc2Cl)n1-c1ccc2c(c1)OCCO2 | inconclusive: 70.8 µM [inhibitor, partial curve] |  |
| COc1ccc(-c2nc(N)nc(C(F)(F)F)c2-c2csc(C)n2)c(O)c1 |  | inactive: 42.3% |
| Cc1cc(OCCOCCN(C)C)ccc1Cl | inconclusive: 89.1 µM [inhibitor, partial curve, poor fit] |  |
| O=C(CC(c1ccco1)S(=O)(=O)c1ccccc1)c1ccc(F)cc1 (centres undefined) |  | inactive: -1.91% |
| O=[N+]([O-])c1ccccc1/C=N/N1CCN(c2ccncc2S(=O)(=O)N2CCCCC2)CC1 | inconclusive: 39.8 µM [inhibitor, partial curve] |  |
| COc1ccc(N2CCN(c3cc(C)c4ccc(C)cc4n3)CC2)cc1 | inconclusive: 39.8 µM [inhibitor, partial curve] |  |
| Nc1ccc2nc(-c3cc(Cl)c(N)c(Cl)c3)[nH]c2c1 | inconclusive: 50.1 µM [inhibitor, partial curve] |  |
| COc1ccc(O)c(C(=O)/C=C/c2cc3ccccc3o2)c1 | active: 3.55 µM |  |
| COc1cc(C2C(C#N)=C(N)Oc3cc(N(C)C)ccc32)cc2c1OCO2 (centres undefined) | inconclusive: 44.7 µM [inhibitor, partial curve, poor fit] |  |
| CCOC(=O)N1CCN(Cc2ccccc2Cl)CC1 | inconclusive: 44.7 µM [inhibitor, partial curve] |  |
| Cc1ccn2c(-c3n[nH]c(=S)n3Cc3ccccc3)c(C)nc2c1 | inconclusive: 89.1 µM [inhibitor, single point] |  |
| COc1ccc(N2CCN(c3n[nH]c(N)n3)CC2)cc1 | inconclusive: 31.6 µM [inhibitor, full curve] |  |
| O=C1C2CC=CCC2C(=O)N1c1ccc(NCCc2ccc(Cl)cc2)c([N+](=O)[O-])c1 (centres undefined) | inconclusive: 17.8 µM [inhibitor, partial curve, poor fit] |  |
| O=C(N/N=C/c1cccc(Cl)c1)C1CCCC1 | inconclusive: 89.1 µM [inhibitor, single point] |  |
| CCn1c(SCC(=O)N2CCN(c3ccc(Cl)cc3)CC2)nc2ccccc2c1=O | inactive |  |
| O=C(O)Cc1sc(Nc2ccc(F)cc2)nc1-c1cccs1 | inconclusive: 14.1 µM [inhibitor, full curve] |  |
| C[C@]12CCC[C@H](O1)c1c(cc3c(c1O)C(=O)c1c(O)cc(O)cc1C3=O)O2 | inconclusive: 28.2 µM [inhibitor, partial curve] |  |
